Reference: PubChem BioAssay AID1745845 (National Center for Advancing Translational Sciences (NCATS), 2022)
Screen size: about 360,000 compounds; about 2,600 (0.72%) were called active. Inconclusive means that the source gave no clear call. Such entries were picked first, then a sample of the others. The call rests on the fitted dose curve; in most records, active means well fitted inhibition curve with a large enough effect; inconclusive means small, poorly fitted or top-dose-only effect; inactive means no such curve, though single readings can be large or run the other way. Where the call is inconclusive, the potency comes from a doubtful curve fit.

experiment: Primary qHTS for Inhibitors of ATXN expression; settings: HEK-293 ATXN2-luciferase reporter, luminescence, 24 h; activity change, negative = inhibition: at 57 µM (top of the series); further: nearly all actives have a fitted effect of over 55% in size
Summary of the method: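 qHTS (up to 57 uM final) was run with 24 h compound exposure of reporter cells at 37 °C. Each well was multiplexed: SteadyGlo luminescence measured ATXN2-luciferase expression after a fluorogenic Gly-Phe-AFC viability readout (25 uM final).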
On the % scale 0 is the no-effect control and ±100 the full control effect; potency means the concentration at half of the fitted maximal effect; tags describe the fitted curve by direction and shape.

Potency, inconclusive:
COc1ccc(NC(=O)CCCN2C(=O)/C(=C\c3ccco3)SC2=S)cc1 39.8 µM [inhibitor, single point]
O=C1OC(c2ccc3ccccc3c2O)(c2ccc3ccccc3c2O)c2ccccc21 25.1 µM [inhibitor, partial curve, poor fit]
CC(=O)NC(c1ccco1)c1cc(F)c2cccnc2c1O (stereo unspecified) 25.1 µM [inhibitor, single point]
CC1(C(=O)Nc2ccccc2Cc2ccccc2)CCN1Cc1ccccc1Cl (stereo unspecified) 25.1 µM [inhibitor, partial curve, poor fit]
O=C(Nc1nc2c(Cl)cccc2s1)c1ccc([N+](=O)[O-])o1 26.7 µM [inhibitor, partial curve]
O=C1CC(c2ccccc2)CC(O)=C1C=NCc1ccncc1 (stereo unspecified) 42.3 µM [inhibitor, partial curve, poor fit]
O=C(Nc1ccc(F)c(Cl)c1)c1cc(S(=O)(=O)NCc2ccc3c(c2)OCO3)ccc1F 28.2 µM [inhibitor, partial curve]
CCN(CC)CCCNC1=C(Cl)C(=O)c2ccccc2C1=O 33.6 µM [inhibitor, single point]
O=C(Nc1ncnc2c1C(c1ccccc1)c1c(ccc3ccccc13)O2)c1ccccc1 (stereo unspecified) 28.2 µM [inhibitor, single point]
COC(=O)C1=C(C)NC(C)=C(C(=O)OC(C)(C)CN(C)CCC(c2ccccc2)c2ccccc2)C1c1cccc([N+](=O)[O-])c1 (stereo unspecified) 22.4 µM [inhibitor, partial curve, poor fit]
CC(=C/c1ccccc1)/C=N/NC(=O)c1ccccn1 25.1 µM [inhibitor, single point]
N/C(=N\OCc1ccc([N+](=O)[O-])cc1)c1ccccn1 8.91 µM [inhibitor, full curve, poor fit]
O=C1CN(C(=O)c2cccc(Br)c2)C(c2ccccc2)c2cc(Cl)ccc2N1 (stereo unspecified) 39.8 µM [inhibitor, single point]
O=C(C[C@H]1C(=O)N(Cc2cccnc2)C[C@@H]1Cc1ccccc1)Nc1ccc(Br)cc1 39.8 µM [inhibitor, single point]
COc1ccc(N(Cc2cc(=O)[nH]c3ccccc23)C(=O)CCl)cc1 12.6 µM [inhibitor, single point]
Cn1c(NCCN2CCCC2)nc2cc(-c3ccccc3)sc2c1=O 39.8 µM [inhibitor, partial curve, poor fit]
COc1cc(/C=C/C(=O)/C=C(O)/C=C/c2ccc(O)c(OC)c2)ccc1O 39.8 µM [inhibitor, single point]
Cc1ccc(C)c2[nH]c(=O)c(CN(CCN3CCCC3)C(=O)Nc3cccc(Cl)c3)cc12 25.1 µM [inhibitor, partial curve, poor fit]
COc1ccc(S(=O)(=O)N(CCc2ccccc2)CC(=O)Nc2cc(C)cc(C)c2)cc1OC 39.8 µM [inhibitor, partial curve, poor fit]
COc1ccc(C(=O)Nc2ccc(NC(=O)c3cccs3)c(OC)c2)cc1Cl 13.4 µM [inhibitor, partial curve, poor fit]
Cn1cccc1C(=O)NC(=O)COC(=O)c1ccc(S(C)(=O)=O)c([N+](=O)[O-])c1 28.2 µM [inhibitor, single point]
COC(=O)c1scc(C#N)c1N/N=C(\C#N)S(=O)(=O)c1ccc(Cl)cc1 25.1 µM [inhibitor, single point]
COc1cccc(CNC(=O)C2CCC(CNc3nc(=S)[nH]c4ccccc34)CC2)c1 (stereo unspecified) 26.7 µM [inhibitor, partial curve, poor fit]
COc1ccc(/C=C/C(=O)c2cc3cccc(OC)c3oc2=O)cc1 26.7 µM [inhibitor, partial curve, poor fit]
CCC(C)NC(=O)c1cn(CC)c2ccc(S(=O)(=O)N3CCc4ccccc4C3)cc2c1=O (stereo unspecified) 22.4 µM [inhibitor, single point]
CCCCCCc1cc2cc(S(=O)(=O)c3ccc(F)cc3)c(=O)oc2cc1O 35.5 µM [inhibitor, single point]
Cc1cc([N+](=O)[O-])nn1Cc1ccc(C(=O)N/N=C/c2ccc(O)cc2O)cc1 7.08 µM [inhibitor, full curve, poor fit]
CCCC1=NN(C(=O)C(=O)Nc2ccc(Br)cc2)C(O)(C(F)(F)F)C1 (stereo unspecified) 39.8 µM [inhibitor, single point]
CN1CCN(c2ccc(Cl)cc2NC(=O)c2nn(-c3ccccc3)c(=O)c3ccccc23)CC1 7.08 µM [inhibitor, single point]
CC(C)N1C(=O)/C(=C/c2nc3ccccc3c(=O)n2-c2ccccc2)c2ccccc21 35.5 µM [inhibitor, single point]
CN1CCN2c3ccccc3Cc3ccccc3C2C1 (stereo unspecified) 24.3 µM [inhibitor, partial curve, poor fit]
Cc1ccccc1C(=O)Nc1cccc(-c2cn3ccccc3n2)c1 39.8 µM [inhibitor, single point]
C=CCO/N=C/C1C(=O)CC(C)(C)CC1=O 0.238 µM [inhibitor, partial curve, poor fit]
COc1ccc(S(=O)(=O)Nc2cc(C)c(O)cc2C(C)C)cc1 17.8 µM [inhibitor, partial curve, poor fit]
CCOCCCNC(=S)N1CCN(c2nc(-c3ccccc3)cs2)CC1 12.6 µM [inhibitor, partial curve]
Cc1nn(-c2ccc(N3CCCCC3)nn2)c(C)c1CCC(=O)Nc1ccc(F)c(F)c1 39.8 µM [inhibitor, single point]
C[C@@H]1CC[C@]2(C(=O)O)CC[C@]3(C)C(=CCC4[C@]56CC[C@@](O)(OC5)C(C)(C)C6CC[C@]43C)C2[C@H]1C (stereo partly specified) 35.5 µM [inhibitor, partial curve, poor fit]
O=C(N/N=C/c1ccc([N+](=O)[O-])s1)c1ccncc1 3.16 µM [inhibitor, partial curve, poor fit]
Cc1ccc(C(=O)N/C(=C\c2ccc(-c3ccc(Cl)cc3)o2)C(=O)NCCCN(C)C)cc1 17.8 µM [inhibitor, partial curve, poor fit]

Potency, active:
CCN(CC)S(=O)(=O)c1cccc(NC(=O)Nc2cccc(C(F)(F)F)c2)c1 22.4 µM
CCOc1ccc(-c2nnc(SCC(=O)Nc3ccc4c(c3)c3ccccc3n4CC)n2N)cc1 31.6 µM
Cc1ccc(C2=NN(C(=O)CCl)C(c3cccs3)C2)o1 (stereo unspecified) 7.52 µM
C/C(=N\NC(=O)c1ccc(CN2CCc3ccccc3C2)cc1)c1ccccc1O 15.8 µM
COC(=O)[C@@H]1[C@@H](C#N)C2(c3ccccc3-c3ccccc32)N(c2ccc(Cl)cc2)N1C#N 10 µM

Activity change, negative = inhibition, inconclusive:
Nc1cc(N2CCOCC2)c(Cl)cc1[N+](=O)[O-] -40.6% [inhibitor]

Activity change, negative = inhibition, inactive:
O=C(CN1CCCC1)Nc1ccccc1Cl 6.84%
S=c1[nH]nc(-c2cc(-c3ccccc3)n[nH]2)n1/N=C/c1ccc(Cl)c(Cl)c1 -5.5%
COc1ccc2[nH]c3c(c2c1)CCN1C(=O)C(CC(=O)NCc2cccc(C(F)(F)F)c2)C[C@H](C(=O)N2CCCCC2)[C@@]31C (stereo partly specified) 0%
COc1ccc(S(=O)(=O)Nc2ccccc2C(=O)NCc2ccco2)cc1 -2.81%
COc1cccc(C(=O)/C=C/Nc2cccc(O)c2)c1 -23.5%
CCCCC(=O)C1CCN(Cc2ccccc2)CC1 1.82%
N#CCCN(C(=O)COC(=O)c1nc(Cl)ccc1Cl)c1ccccc1 -6.14%
O=C1NC[C@@H](Cc2ccc(O)cc2)N(CC2CCCCC2)C1=O 0.313%
CCOC(=O)C(Oc1ccc2c(-c3ccccc3)cc(=O)oc2c1C)c1ccccc1 (stereo unspecified) -16.8%
Cc1nc(-c2ccc(C)c(S(=O)(=O)N3CCC(C(=O)NCc4ccc(F)cc4)CC3)c2)no1 -13.4%
Cc1ccc2c(c1)/C(=C/c1ccccc1)C(=O)N2 0%
O=C(Cn1cc[n+](CC(=O)c2ccc(Cl)cc2Cl)c1)c1ccc(Cl)cc1Cl -36.7%
COc1ccccc1NC(=O)C(=O)Nc1ccccn1 60%
CC(C)C[C@H](NC(=O)c1[nH]cnc1C(=O)Nc1ccc(CNC(=O)OC(C)(C)C)cc1)C(=O)OC(C)(C)C 0%
COc1ccc2[nH]cc(C(=O)CN3CCCC(C)C3)c2c1 (stereo unspecified) 1.12%
CCCn1ncc2c(Nc3ccc(C)c(C)c3)ncnc21 48.1%
Cc1ccc(Cl)cc1N1CCN(S(=O)(=O)c2cnc[nH]2)CC1 -7.31%
CCN(CC)C(=O)CSc1ncnc2c(-c3cccs3)nsc12 29.3%
O=C(NC1CCCC1)c1cc(COc2ccc3ncccc3c2)on1 -26.4%
CCOC(=O)C1CCN(C(=O)COC(=O)c2ccc3[nH]c4c(c3c2)CCCC4)CC1 -0.655%
COCCNC(=O)CN1C(=O)CSc2ccc(S(=O)(=O)N3CCOCC3)cc21 -10.9%
